The test system of the assay is cAMP response element (CRE)-luciferase. Particulars: CRE-Luc mice, ex vivo tissue, 10 mg/kg intraperitoneal, vs vehicle.

`CC(C)NCC(O)c1ccc(O)c(O)c1` (centres unmarked) [isoproterenol]: the “increase of liver luciferase activity” value is around 10 fold and the “increase of pancreas luciferase activity” value is on record as around 1000 fold.
